{"source": "paper PMC7392005", "molecular_target": "HA-tagged p65 overexpressed in MCF-7 cells, Q04206", "assay": "co-IP; MCF-7 cells overexpressing Flag-tagged CHIP and HA-tagged p65, with or without overexpression of FBP1 (text; the legend says PIM2); total cell lysates", "conditions": "remark: other sources report otherwise", "note": "These are yes or no findings as the source states them, for the method shown. Binding seen in cells or lysates may run through a third protein. Some entries that bind do so weakly or less than the wild type. Where a sequence is shown, tags or fusion partners need not be part of it.", "data": [{"binder": "Flag-tagged CHIP, Q9UNE7 1-303 (enzyme) MKGKEEKEGGARLGAGGGSPEKSPSAQELKEQGNRLFVGRKYPEAAACYGRAITRNPLVAVYYTNRALCYLKMQQHEQALADCRRALELDGQSVKAHFFLGQCQLEMESYDEAIANLQRAYSLAKEQRLNFGDDIPSALRIAKKKRWNSIEERRIHQESELHSYLSRLIAAERERELEECQRNHEGDEDDSHVRAQQACIEAKHDKYMADMDELFSQVDEKRKKRDIPDYLCGKISFELMREPCITPSGITYDRKDIEEHLQRVGHFDPVTRSPLTQEQLIPNLAMKEVIDAFISENGWVEDY", "values": [{"measurement": "binding", "value": "binds"}]}]}
